According to publication PMC12136788:
This is one part of the list.

T1: UNK ZnF1-3 (human, UniProt Q9C0B0 31-174)
T1 sequence: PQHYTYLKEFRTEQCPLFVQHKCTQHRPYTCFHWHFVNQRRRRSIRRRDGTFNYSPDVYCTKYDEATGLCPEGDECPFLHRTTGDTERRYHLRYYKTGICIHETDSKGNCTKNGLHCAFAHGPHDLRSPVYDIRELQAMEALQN

B1: chr14:92597410:92597411:+_ENSG00000165934_ENST00000298875|hu_mus|FALSE|FALSE (ssRNA)
RNA: GGGAGUUCUACAGUCCGACGAUCGGAAUCAAUAAUGUCCACAGAGAAGUGUUCAUCCCAGCCACAGUCCAACAAAAACCUAAACUCAUCAACCUGGAGAAGAUAGCAAAGAGCGGACUCUUCUUGAACCCCAGAGAGGGUGGUCAACAGAGGAUUGAGCAUCA
B2: chr1:85784824:85784825:-_ENSG00000153904_ENST00000284031|hu_hu|motif|central (ssRNA)
RNA: GGGAGUUCUACAGUCCGACGAUCAGUAUCUUUCCUUUUCAAAAAUAACAUUAUGCUAAUGAGAACAUCAAAGAAGUAAUACGGUGCUGCAAGUAAUUUAGGUUUUCACAUCAUCAAUCAUAUAGGGAGUCCAAAGAAGCCAGCCAACAGAGGAUUGAGCAUCA
B3: 247079626_247081600_256_CDS_ENSG00000153207_ENST00000391829|human|control|control (ssRNA)
RNA: GGGAGUUCUACAGUCCGACGAUCUCGCUCUCCUGUUAUAGAGUUUACUACCUCAAGUUGUGGACCACAAGCCAAGCAAGCAAGUCCAUUUUUCCCUGCAGCAAACUUUCCACGAAGCACAGAUUCUAAUGUUAUUUCGUCUUCCAACAGAGGAUUGAGCAUCA
B4: chr6:71561584:71561585:-_ENSMUSG00000053470_ENSMUST00000065509|mus_hu|FALSE|FALSE (ssRNA)
RNA: GGGAGUUCUACAGUCCGACGAUCACAGCUUUCAUUAUCUACUUUUACUGAAGAUUCCUUUAAAUUCUGUGAUCGGCAAGCUAAAGCUGAAGGUUCUACCUUUUUUCCUGAACAGUUAUUAGGGCUAUCACUAUUGACACCUGCCAACAGAGGAUUGAGCAUCA
B5: chr7:54825262:54825263:-_ENSG00000132432_ENST00000352861|hu_hu|hu_hu_hu_mus_False|28_48 (ssRNA)
RNA: GGGAGUUCUACAGUCCGACGAUCCUGCCGGCUGGGCUCCACAAACUGCAUUACCUGAUCCAUGUUUGUUGGAUGGCGGAUUGAGAGUGCCAGGGACCGUAGCUCAGGGAGCUUGCUAGCCCAACGGAACCGGAAGCUGGCAACCAACAGAGGAUUGAGCAUCA
B6: chr14:102547831:102547832:-_ENSG00000080824_ENST00000216281|hu_hu|FALSE|FALSE (ssRNA)
RNA: GGGAGUUCUACAGUCCGACGAUCCAGUGCACGUUACCCCAAUCUGUGAAAAUAAACCAACAUGAAACUCAAAAAGCAUUACUAGCUCUGCUUUAGUGCCUAAGGUAUCACAGCAUCACUUAGUAGACAGAAAUCUUAUCUUCCCAACAGAGGAUUGAGCAUCA
B7: chr8:26933331:26933332:-_ENSMUSG00000031575_ENSMUST00000166078|mus_mus|motif|central (ssRNA)
RNA: GGGAGUUCUACAGUCCGACGAUCCUGGUGGAACUUGGUGCCUUUCUUGCUCCGCCAAGAAUAGCUAAACUUAUCAUAGCCGGAGGGAGCUUGGAGGUUACCUAAGGGCUGGGACCAGCCCAGCCUGGCAGCAGUGUCUGGGGGCAACAGAGGAUUGAGCAUCA
B8: chr5:61651017:61651018:+_ENSG00000068796_ENST00000381103|hu_hu|motif|central (ssRNA)
RNA: GGGAGUUCUACAGUCCGACGAUCCCUAUGUUCAUCAAUAGGAUCUGCUGUUGUUAAUGGUCUAUAAUCCAAACUUCCUCGGAAGUCUCUGAUCAUACACAUAAUUUCAUAAUUUGGGUUUGUAGCAUCAACGUCCUGGGCUCUCAACAGAGGAUUGAGCAUCA
B9: chr7:54825262:54825263:-_ENSG00000132432_ENST00000352861|hu_hu|hu_hu_hu_mus_False|1_98 (ssRNA)
RNA: GGGAGUUCUACAGUCCGACGAUCCUGCCGGCUGGGCACAAACUGCAGCAUUACCUGAUCCAUGUUUGUUGGAUGGCGGAUUGAGAGCGUAGAGACACGUAGCUCAGGAGAGAACCGAGCCCAACGGAACCGGAAGCGGAAUCCCAACAGAGGAUUGAGCAUCA
B10: chr1:60041781:60041782:+_ENSMUSG00000041040_ENSMUST00000036540|mus_hu|mus_mus_mus_hu_False|38_48 (ssRNA)
RNA: GGGAGUUCUACAGUCCGACGAUCAAGUUUACAAUAGUAAAGUAAAUGCAGUAGUGGCAAAUUUUCUUUUAUUUUCCUUCACAAAAGAAAACCUCAGGAUCUCAGUUCUAGUCUUGGACAUAGUGAAAGCUAUAAAUUCUGACUCAACAGAGGAUUGAGCAUCA
B11: 32258711_32258831_4409_3pUTR_ENSMUSG00000024384_ENSMUST00000025243|mouse|control|control (ssRNA)
RNA: GGGAGUUCUACAGUCCGACGAUCAACUCUUAAAAACUUGCUUUACAUGUCAGAACUGUUUUGAAUUCAUUAGAUGCUUUUAUUGUUUUUAGUUAAUGAAAUUAAACAAAGCCAGAGGUAGUUUUUGCCACCACCUAGUCUGUACAACAGAGGAUUGAGCAUCA
B12: chr11:82972979:82972980:-_ENSG00000137500_ENST00000527495|hu_hu|motif|central (ssRNA)
RNA: GGGAGUUCUACAGUCCGACGAUCAGCCACAGCAGGAUGAGCAUUAAUACUACUUCCAGAAUCUAUAAAAUCCCAAUGCGGUUGCCAGGCAAGUAAACACCGAAGCUUUUUUGUAAAUUCUGUAGUUGUUUCCAUAAGUUGCUUCAACAGAGGAUUGAGCAUCA
B13: chr5:23013406:23013407:-_ENSMUSG00000062604_ENSMUST00000088392|mus_mus|FALSE|FALSE (ssRNA)
RNA: GGGAGUUCUACAGUCCGACGAUCUCCAAUGUACUGGGAGAAAUUUGCUAGCUCAGAAUGCUAUAUUUGUAGAAUCUGCUAAGAAUUCAACCAAGGAUGUCGAAGGCAUUCGCCAGCUGAGGCUCGUUUUUCUGGAACCAUCUCCAACAGAGGAUUGAGCAUCA
B14: chr2:115689366:115689367:-_ENSMUSG00000027210_ENSMUST00000074285|mus_hu|FALSE|FALSE (ssRNA)
RNA: GGGAGUUCUACAGUCCGACGAUCCUUUGAAGAAGAGUCCCCCAAAAAUAAUAAUAAGAAUUGGCUUAUGAAGCACGAACUAUAAAGAUCUGUUUGAAACUAAAGGACACAUUUAUGGAGGAACAAAGGCCGGGCAUGAAAACACAACAGAGGAUUGAGCAUCA
B15: 200376840_200376960_2058_3pUTR_ENSG00000162702_ENST00000294740|human|control|control (ssRNA)
RNA: GGGAGUUCUACAGUCCGACGAUCACAUACUUGCUUUAUCAUUUGAAGGUGUUUGGGUGCCUGGGCUCAAAUUUUCUUCUUGAACCAAUUCUGAGUGUUCUCCUGAGGUGUGUAAAUCCACUCGUGGUUCUGCAAUAUUGAAAGCAACAGAGGAUUGAGCAUCA
B16: chr17:60642451:60642452:+_ENSG00000146872_ENST00000343388|hu_hu|FALSE|FALSE (ssRNA)
RNA: GGGAGUUCUACAGUCCGACGAUCUUCCUGUUGCUUGAUAAGAUUCUGAAAAGCAUAACCAUCUGUCCACUGUUCAGUAAAUGAGGCUCCGUGUCGGACAGUAGUAAAGUGGCCCAGUCUCAAGCGGUCUUGCAUGCUCUUAUCCAACAGAGGAUUGAGCAUCA
B17: chr2:38870607:38870608:+_ENSMUSG00000026755_ENSMUST00000090993|perfect_dup|motif|central (ssRNA)
RNA: GGGAGUUCUACAGUCCGACGAUCUAACAGGAUUUUUUUUUAAACAGUCUUUCUUGCUGUAAGAACUCUUAUAAUGGAGCCGGGUCCUCCUACAGCUAAGGCCUUUUCAUGCCACUGGAGUAGCACUGCACUGCUAUUUUCUGUCAACAGAGGAUUGAGCAUCA
B18: chr2:216981417:216981418:+_ENSG00000079246_ENST00000392132|hu_hu|hu_hu_hu_mus_True|38_88 (ssRNA)
RNA: GGGAGUUCUACAGUCCGACGAUCCUGAUACUGGUCCUUGCCAGCAAGGGGAUUGUCAGUGCCAUCUGUGCCAUAGAGGACUAACGCAAUCUCAUCUUUGUUCUCAGAAAAUACCUGUCGUUGGACAAACAUAGUCAUCACUUUCAACAGAGGAUUGAGCAUCA
B19: chr7:97322993:97322994:+_ENSMUSG00000039361_ENSMUST00000049537|mus_mus|FALSE|FALSE (ssRNA)
RNA: GGGAGUUCUACAGUCCGACGAUCUGUUGUAGCCCUGCUUGCAGCUGUGGAAUCUUUGAUUUUCUUUCCUUCCAAGGAAGCUAAAUGUUGUUCUAAAGCAUCAAGAAGACUGCUGGGGGCCUGUGAAAGAUCUGGAAUAUCUCCCAACAGAGGAUUGAGCAUCA
B20: chr7:102939105:102939106:+_ENSG00000105819_ENST00000453466|hu_mus|FALSE|FALSE (ssRNA)
RNA: GGGAGUUCUACAGUCCGACGAUCCCCAACUGUGCACGUUGAGAGCCCAGAGUUUUCAGAAGCUACUCUGAGUCCAUUUUCCAAACAUGUCACUUGUGUCUCGGGGACAUUCAGCACAACCUGUGGGGCAGCCUGUGUGCUUCUCAACAGAGGAUUGAGCAUCA
B21: chr8:54730063:54730064:-_ENSG00000047249_ENST00000359530|hu_mus|FALSE|FALSE (ssRNA)
RNA: GGGAGUUCUACAGUCCGACGAUCUGGCAGGAAGUAUGGCCAGGCAGUGCUCUUGCUUCGUUUCGCAUAGUCAAAGAAAAUGCUGACACGCUGGUGAUUUUCCUGCAGCAUAUCGUCAACCAUGGUUAGUAUGUACUGCACUGUCAACAGAGGAUUGAGCAUCA
B22: chr14:89338683:89338684:+_ENSG00000165533_ENST00000346301|hu_hu|hu_hu_hu_mus_False|78_108 (ssRNA)
RNA: GGGAGUUCUACAGUCCGACGAUCGUGGUUGUUGUUGACCAGGGCCAGCCUGAAGCACUGAUGGGCCAAGUUUGUAUCUCCGAUUCCCACAGCUAUGUGCCCCAGGUUGUACCAGACAUCAGCUGCCUCUUCUUCAUUUUCAGCCAACAGAGGAUUGAGCAUCA

Biological target: T1, UNK ZnF1-3
Experiment: nsRBNS (natural sequence RNA bind-n-seq); RBNS binding buffer (assumed for nsRBNS): 25 mM Tris pH 7.5, 150 mM KCl, 3 mM MgCl2, 0.01% Triton X-100, 500 ug/ml BSA, 20 U/ml SUPERase-In, 4 C; UNK is unkempt and MSI1 is Musashi-1; names of the RNAs are library labels; protein concentration not given here; high values mean tight binding

Compared with B1, B2 is higher in binding signal: 1.15 enrichment R for the first, 2.79 enrichment R for the second.

First: B3
Second: B4
The binding signal of the first is lower: 0.761 enrichment R for the first, 1.22 enrichment R for the second.

Compared with B5, B6 is higher in binding signal: 1.36 enrichment R for the first, 1.67 enrichment R for the second.

Compared with B7, B8 is higher in binding signal: 1.03 enrichment R for the first, 1.07 enrichment R for the second.

Compared with B9, B10 is lower in binding signal: 1.09 enrichment R for the first, 0.679 enrichment R for the second.

First: B11
Second: B12
The binding signal of the first is lower: 0.558 enrichment R for the first, 2.24 enrichment R for the second.

Going from B13 to B14, the binding signal rises from 1.09 enrichment R to 2.88 enrichment R.

Compared with B15, B16 is higher in binding signal: 0.548 enrichment R for the first, 0.953 enrichment R for the second.

First: B17
Second: B18
The binding signal of the first is lower: 0.52 enrichment R for the first, 1.18 enrichment R for the second.

Going from B19 to B20, the binding signal falls from 1.13 enrichment R to 0.828 enrichment R.

Compared with B21, B22 is lower in binding signal: 0.661 enrichment R for the first, 0.586 enrichment R for the second.
